These are literature values, as cited in article PMC11006913.

Changes are numbered by the printed parent chain. Some of the results follow.

What all share (settings): PBM; conditions not shown; double strand, one strand shown; scale: upbm affinity estimate (log intensity, higher = more binding, comparable within an allelic series)
One data set deals with T1, PBX4 (Homo sapiens) (UniProt Q9BYU1).
T1 sequence: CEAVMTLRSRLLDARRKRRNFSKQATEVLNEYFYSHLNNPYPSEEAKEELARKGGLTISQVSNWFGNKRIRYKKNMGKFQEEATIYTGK

Data set [1] addresses T2, PBX4 R215Q (Homo sapiens) (UniProt Q9BYU1).
T2 sequence: T1 sequence with R19Q

For data set [2], the target named is NKX2-5 R190C (Homo sapiens) (UniProt P52952).
Sequence of UniProt P52952 (P52952 125-210 R190C): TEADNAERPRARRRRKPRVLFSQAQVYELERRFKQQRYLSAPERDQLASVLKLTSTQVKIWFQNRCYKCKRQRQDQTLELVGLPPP

Take CAAATCAA [8-mer CAAATCAA]: the figures for the binding signal (with PBX4 (Homo sapiens); in data set [1]) were 10.7 and 10.2, respectively.

As for TAGTCTAA [8-mer TAGTCTAA], the binding signal (with PBX4 (Homo sapiens); in data set [1]) was 10 throughout.

Consider GCCCTTCA [8-mer GCCCTTCA], for which the binding signal in data set [2] was 10.4.

For the sequence AACCCCAT [8-mer AACCCCAT], the binding signal in the data set with PBX4 (Homo sapiens) is 9.96; in data set [1] it was 9.92.

On to GTCGCACA [8-mer GTCGCACA], for which the figures for the binding signal (with PBX4 (Homo sapiens); in data set [1]) were 9.9 and 9.8, respectively.

With AATTCGTG [8-mer AATTCGTG], the binding signal in the data set with PBX4 (Homo sapiens) was 10; in data set [1] it was 9.94.

As for CTTGACTC [8-mer CTTGACTC], the binding signal is 9.97 in the data set with PBX4 (Homo sapiens) and 9.84 in data set [1].

Take AAGAGGGC [8-mer AAGAGGGC]: the binding signal in data set [2] was 10.3.

Take CCCAGACA [8-mer CCCAGACA]: the binding signal in the data set with PBX4 (Homo sapiens) was 9.87; in data set [1], 9.85.

Take CACTCACG [8-mer CACTCACG]: in data set [2], the binding signal was 10.4.

In the case of GCCCCTTA [8-mer GCCCCTTA], the binding signal in data set [2] is 10.3.

GCTTATTA [8-mer GCTTATTA]: in data set [2], the binding signal was 10.9.

Take CCACTAAA [8-mer CCACTAAA]: in data set [2], the binding signal is 10.4.

As to ACTTGGCC [8-mer ACTTGGCC], the binding signal with PBX4 (Homo sapiens) was 9.78; in data set [1], 9.8.

Turning to ACCCTCGA [8-mer ACCCTCGA], in data set [2], the binding signal was 10.4.

On to AGAACTTC [8-mer AGAACTTC], for which the results for the binding signal (in the data set with PBX4 (Homo sapiens); in data set [1]) were 9.92 and 9.94, respectively.

Consider CTCATCAC [8-mer CTCATCAC], for which the binding signal was 10.8 in the data set with PBX4 (Homo sapiens) and 10.2 in data set [1].

With CAAGTGCC [8-mer CAAGTGCC], the binding signal in data set [2] is 10.3.

As to CGCTTTAG [8-mer CGCTTTAG], the figures for the binding signal (with PBX4 (Homo sapiens); in data set [1]) were 9.96 and 9.93, respectively.

CCCCTTAG [8-mer CCCCTTAG]: in data set [2], the binding signal was 10.1.

With TCATCACA [8-mer TCATCACA], the binding signal is 10.7 with PBX4 (Homo sapiens) and 10.2 in data set [1].

As for AAGAGGGG [8-mer AAGAGGGG], the binding signal in data set [2] was 10.2.

For AACTGGTC [8-mer AACTGGTC], the binding signal in the data set with PBX4 (Homo sapiens) was 9.98; in data set [1], 9.87.

Take CCGGGGTC [8-mer CCGGGGTC]: the binding signal in the data set with PBX4 (Homo sapiens) is 9.5; in data set [1], 9.69.

In the case of CCTCTCGA [8-mer CCTCTCGA], the binding signal in data set [2] was 10.3.

Take CCTCAGAG [8-mer CCTCAGAG]: the binding signal in the data set with PBX4 (Homo sapiens) was 9.84; in data set [1], 9.83.

With CCACTCTC [8-mer CCACTCTC], the binding signal in data set [2] was 10.3.

Take CAGAGTGG [8-mer CAGAGTGG]: the binding signal in data set [2] is 10.4.

Turning to CTGCGAAG [8-mer CTGCGAAG], the binding signal in the data set with PBX4 (Homo sapiens) was 9.79; in data set [1], 9.74.

Turning to GCTCGTCA [8-mer GCTCGTCA], the binding signal with PBX4 (Homo sapiens) was 11; in data set [1] it was 10.1.

With ATTGACGA [8-mer ATTGACGA], the binding signal with PBX4 (Homo sapiens) is 10.8; in data set [1], 10.2.

Regarding GTTGACGA [8-mer GTTGACGA], the binding signal with PBX4 (Homo sapiens) was 10.7; in data set [1], 10.1.

With CACATCAA [8-mer CACATCAA], the binding signal with PBX4 (Homo sapiens) is 10.9; in data set [1], 10.2.

Consider AGTTGACG [8-mer AGTTGACG], for which the binding signal with PBX4 (Homo sapiens) is 10.6; in data set [1], 10.1.

On to CGGAACAG [8-mer CGGAACAG], for which the binding signal with PBX4 (Homo sapiens) was 9.97; in data set [1], 9.94.

In the case of ATCATCAT [8-mer ATCATCAT], the binding signal with PBX4 (Homo sapiens) is 10.6; in data set [1] it was 10.3.

Consider CACAAGGA [8-mer CACAAGGA], for which the values for the binding signal (in the data set with PBX4 (Homo sapiens); in data set [1]) were 9.99 and 9.91, respectively.

On to CACCCTGA [8-mer CACCCTGA], for which the binding signal was 9.97 with PBX4 (Homo sapiens) and 9.89 in data set [1].

With GGTAGCGA [8-mer GGTAGCGA], the binding signal with PBX4 (Homo sapiens) is 9.95; in data set [1], 9.88.

For AGGTCGTC [8-mer AGGTCGTC], the binding signal with PBX4 (Homo sapiens) was 9.93; in data set [1], 9.8.

Regarding AACGGACG [8-mer AACGGACG], the figures for the binding signal (with PBX4 (Homo sapiens); in data set [1]) were 9.85 and 9.84, respectively.

As for CCGTGGCA [8-mer CCGTGGCA], the binding signal was 9.84 with PBX4 (Homo sapiens) and 9.8 in data set [1].

Take CGAGATAG [8-mer CGAGATAG]: the binding signal is 9.94 with PBX4 (Homo sapiens) and 9.87 in data set [1].

On to CCCCACAA [8-mer CCCCACAA], for which the results for the binding signal (with PBX4 (Homo sapiens); in data set [1]) were 9.95 and 9.93, respectively.

Regarding TCATCAAA [8-mer TCATCAAA], the binding signal was 10.8 in the data set with PBX4 (Homo sapiens) and 10.2 in data set [1].

In the case of GCGAGCAC [8-mer GCGAGCAC], the results for the binding signal (in the data set with PBX4 (Homo sapiens); in data set [1]) were 9.83 and 9.77, respectively.

For CATTGACG [8-mer CATTGACG], the results for the binding signal (with PBX4 (Homo sapiens); in data set [1]) were 10.8 and 10.2, respectively.

As for ACATATCA [8-mer ACATATCA], the binding signal is 10.8 in the data set with PBX4 (Homo sapiens) and 10.3 in data set [1].

Consider GGCTGCAA [8-mer GGCTGCAA], for which the binding signal with PBX4 (Homo sapiens) was 9.83; in data set [1], 9.8.

As for GTCAATCA [8-mer GTCAATCA], the figures for the binding signal (with PBX4 (Homo sapiens); in data set [1]) were 10.9 and 10.3, respectively.

Regarding GTCATCAA [8-mer GTCATCAA], the binding signal is 10.8 with PBX4 (Homo sapiens) and 10.2 in data set [1].

As to CTTCCCTC [8-mer CTTCCCTC], the values for the binding signal (in the data set with PBX4 (Homo sapiens); in data set [1]) were 9.88 and 9.87, respectively.

In the case of GCGACTTA [8-mer GCGACTTA], the binding signal (with PBX4 (Homo sapiens); in data set [1]) was 9.86 each time.

CCGCACGG [8-mer CCGCACGG]: the binding signal is 9.8 in the data set with PBX4 (Homo sapiens) and 9.77 in data set [1].

Turning to ACGTCAAC [8-mer ACGTCAAC], the binding signal in the data set with PBX4 (Homo sapiens) was 10.8; in data set [1] it was 10.1.

As to ACGGATCC [8-mer ACGGATCC], the values for the binding signal (in the data set with PBX4 (Homo sapiens); in data set [1]) were 10 and 9.84, respectively.

ATGACATG [8-mer ATGACATG]: the binding signal is 11 in the data set with PBX4 (Homo sapiens) and 10.2 in data set [1].

As to GCGAAAAC [8-mer GCGAAAAC], the binding signal with PBX4 (Homo sapiens) is 9.85; in data set [1] it was 9.8.

GTGTGCGA [8-mer GTGTGCGA]: the binding signal is 9.94 with PBX4 (Homo sapiens) and 9.82 in data set [1].

On to CGGGATGC [8-mer CGGGATGC], for which the binding signal with PBX4 (Homo sapiens) is 9.77; in data set [1], 9.76.

GCACAAGC [8-mer GCACAAGC]: the binding signal (with PBX4 (Homo sapiens); in data set [1]) was 9.84 throughout.

Consider GACAATGC [8-mer GACAATGC], for which the binding signal in the data set with PBX4 (Homo sapiens) is 9.99; in data set [1], 9.93.

With AAAGGGCT [8-mer AAAGGGCT], the binding signal is 9.86 in the data set with PBX4 (Homo sapiens) and 9.82 in data set [1].

Turning to GCGCTCTA [8-mer GCGCTCTA], the values for the binding signal (with PBX4 (Homo sapiens); in data set [1]) were 9.89 and 9.84, respectively.
